Source: paper PMC12820563
The list shows a part of the results. The list includes weakly bound sequences.

molecular target: T1, MBP-FoxP3dN (UniProt Q99JB6); assay: PD-seq (MBP pull-down with sequencing); settings: 20 mM Tris-HCl pH 7.5, 100 mM NaCl, 1.5 mM MgCl2, 0.4 uM protein, 0.1 uM dsDNA library, 30 min, room temperature, amylose pull-down; high values mean tight binding; double strand, one strand shown
T1 sequence: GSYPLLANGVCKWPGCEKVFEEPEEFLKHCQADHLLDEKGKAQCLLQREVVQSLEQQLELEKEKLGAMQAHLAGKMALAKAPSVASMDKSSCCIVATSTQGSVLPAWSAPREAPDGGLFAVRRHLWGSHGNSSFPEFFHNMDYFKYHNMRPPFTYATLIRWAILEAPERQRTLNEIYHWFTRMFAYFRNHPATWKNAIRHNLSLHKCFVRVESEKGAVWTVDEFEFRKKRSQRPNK

Sequence	binding signal (RPM ratio (pull-down/input))
GATGATTGTTCTCCCAGCTGATGAATTACCGTTTTCGAGTAAACAAATTTTCCTAATCTTTCTGTTCAAGCGCCATCTAC	0.571
GATGATTGTTCTCCCAGCTGATGAATTACGTTATTCGAGTAAACAAATTTTCCTAATCTTTCTGTTCAAGCGCCATCTAC	2.14
GATGATTGTTCTCCCAGCTGATGAATTGCACCAATCGAGTAAACAAATTTTCCTAATCTTTCTGTTCAAGCGCCATCTAC	0.831
GATGATTGTTCTCCCAGCTGATGAATTGTGTTTGTCGAGTAAACAAATTTTCCTAATCTTTCTGTTCAAGCGCCATCTAC	8.45
GATGATTGTTCTCCCAGCTGATGAATTCGATACTTCGAGTAAACAAATTTTCCTAATCTTTCTGTTCAAGCGCCATCTAC	0.588
GATGATTGTTCTCCCAGCTGATGAATTAGTAGCTTCGAGTAAACAAATTTTCCTAATCTTTCTGTTCAAGCGCCATCTAC	1.26
GATGATTGTTCTCCCAGCTGATGAATTAGATCATTCGAGTAAACAAATTTTCCTAATCTTTCTGTTCAAGCGCCATCTAC	0.534
GATGATTGTTCTCCCAGCTGATGAATTGGTTGTATCGAGTAAACAAATTTTCCTAATCTTTCTGTTCAAGCGCCATCTAC	3.71
GATGATTGTTCTCCCAGCTGATGAATTACAGGGATCGAGTAAACAAATTTTCCTAATCTTTCTGTTCAAGCGCCATCTAC	0.32
GATGATTGTTCTCCCAGCTGATGAATTGACCTTTTCGAGTAAACAAATTTTCCTAATCTTTCTGTTCAAGCGCCATCTAC	0.29
GATGATTGTTCTCCCAGCTGATGAATTTTTAATCTCGAGTAAACAAATTTTCCTAATCTTTCTGTTCAAGCGCCATCTAC	0.267
GATGATTGTTCTCCCAGCTGATGAATTCGGCCCTTCGAGTAAACAAATTTTCCTAATCTTTCTGTTCAAGCGCCATCTAC	0.868
GATGATTGTTCTCCCAGCTGATGAATTCACTACGTCGAGTAAACAAATTTTCCTAATCTTTCTGTTCAAGCGCCATCTAC	0.332
GATGATTGTTCTCCCAGCTGATGAATTGACGCCGTCGAGTAAACAAATTTTCCTAATCTTTCTGTTCAAGCGCCATCTAC	0.801
GATGATTGTTCTCCCAGCTGATGAATTATAAAGCTCGAGTAAACAAATTTTCCTAATCTTTCTGTTCAAGCGCCATCTAC	0.289
GATGATTGTTCTCCCAGCTGATGAATTCGGACACTCGAGTAAACAAATTTTCCTAATCTTTCTGTTCAAGCGCCATCTAC	1.25
GATGATTGTTCTCCCAGCTGATGAATTGTTTCCTTCGAGTAAACAAATTTTCCTAATCTTTCTGTTCAAGCGCCATCTAC	1.52
GATGATTGTTCTCCCAGCTGATGAATTCTTCAAATCGAGTAAACAAATTTTCCTAATCTTTCTGTTCAAGCGCCATCTAC	0.265
GATGATTGTTCTCCCAGCTGATGAATTACGACTCTCGAGTAAACAAATTTTCCTAATCTTTCTGTTCAAGCGCCATCTAC	1.93
GATGATTGTTCTCCCAGCTGATGAATTGGGAATTTCGAGTAAACAAATTTTCCTAATCTTTCTGTTCAAGCGCCATCTAC	1.3

Sequence	binding signal (RPM ratio (pull-down/input))
GATGATTGTTCTCCCAGCTGATGAATTCAGACTTTCGAGTAAACAAATTTTCCTAATCTTTCTGTTCAAGCGCCATCTAC	0.914
GATGATTGTTCTCCCAGCTGATGAATTCTTAGATTCGAGTAAACAAATTTTCCTAATCTTTCTGTTCAAGCGCCATCTAC	0.257
GATGATTGTTCTCCCAGCTGATGAATTTGCCCGCTCGAGTAAACAAATTTTCCTAATCTTTCTGTTCAAGCGCCATCTAC	0.355
GATGATTGTTCTCCCAGCTGATGAATTGATCAAATCGAGTAAACAAATTTTCCTAATCTTTCTGTTCAAGCGCCATCTAC	0.304
GATGATTGTTCTCCCAGCTGATGAATTGGGAAAGTCGAGTAAACAAATTTTCCTAATCTTTCTGTTCAAGCGCCATCTAC	0.221
GATGATTGTTCTCCCAGCTGATGAATTGTTAGATTCGAGTAAACAAATTTTCCTAATCTTTCTGTTCAAGCGCCATCTAC	0.635
GATGATTGTTCTCCCAGCTGATGAATTTAGTAAATCGAGTAAACAAATTTTCCTAATCTTTCTGTTCAAGCGCCATCTAC	0.439
GATGATTGTTCTCCCAGCTGATGAATTTGAACAATCGAGTAAACAAATTTTCCTAATCTTTCTGTTCAAGCGCCATCTAC	0.363
GATGATTGTTCTCCCAGCTGATGAATTGAGCGAATCGAGTAAACAAATTTTCCTAATCTTTCTGTTCAAGCGCCATCTAC	0.249
GATGATTGTTCTCCCAGCTGATGAATTAAATGGATCGAGTAAACAAATTTTCCTAATCTTTCTGTTCAAGCGCCATCTAC	0.314
GATGATTGTTCTCCCAGCTGATGAATTGAATTATTCGAGTAAACAAATTTTCCTAATCTTTCTGTTCAAGCGCCATCTAC	1.34
GATGATTGTTCTCCCAGCTGATGAATTGGTAGCATCGAGTAAACAAATTTTCCTAATCTTTCTGTTCAAGCGCCATCTAC	1.39
GATGATTGTTCTCCCAGCTGATGAATTAGACCATTCGAGTAAACAAATTTTCCTAATCTTTCTGTTCAAGCGCCATCTAC	0.44
GATGATTGTTCTCCCAGCTGATGAATTACTTCCCTCGAGTAAACAAATTTTCCTAATCTTTCTGTTCAAGCGCCATCTAC	0.245
GATGATTGTTCTCCCAGCTGATGAATTTGCTAACTCGAGTAAACAAATTTTCCTAATCTTTCTGTTCAAGCGCCATCTAC	0.744
GATGATTGTTCTCCCAGCTGATGAATTGCCCTATTCGAGTAAACAAATTTTCCTAATCTTTCTGTTCAAGCGCCATCTAC	0.508
GATGATTGTTCTCCCAGCTGATGAATTGGTCCCCTCGAGTAAACAAATTTTCCTAATCTTTCTGTTCAAGCGCCATCTAC	0.358
GATGATTGTTCTCCCAGCTGATGAATTTTATTGTTCGAGTAAACAAATTTTCCTAATCTTTCTGTTCAAGCGCCATCTAC	6.02
GATGATTGTTCTCCCAGCTGATGAATTGCCGCCCTCGAGTAAACAAATTTTCCTAATCTTTCTGTTCAAGCGCCATCTAC	0.868
GATGATTGTTCTCCCAGCTGATGAATTGACGTACTCGAGTAAACAAATTTTCCTAATCTTTCTGTTCAAGCGCCATCTAC	0.483
